Source: PubChem BioAssay AID504332 (National Center for Advancing Translational Sciences (NCATS), 2011)
Out of some 350,000 compounds screened, about 31,000 (8.9%) were called active. The shares of active, inactive and inconclusive entries below differ from those in the screen. The call rests on the fitted dose curve; in most records, active means well fitted inhibition curve with a large enough effect; inconclusive means small, poorly fitted or top-dose-only effect; inactive means no such curve, though single readings can be large or run the other way. A potency beside an inconclusive call is a rough fit, not a confirmed value.

molecular target: Histone-lysine N-methyltransferase EHMT2 (Homo sapiens) (UniProt Q96KQ7); test: qHTS Assay for Inhibitors of Histone Lysine Methyltransferase G9a; details: G9a H3K9 monomethylation, AlphaScreen, 2 h; activity, negative = inhibition: at 59 µM (top of the series) unless noted; further: nearly all actives have a fitted effect of over 75% in size
Chain of UniProt Q96KQ7 (Q96KQ7 whole entry, looked up): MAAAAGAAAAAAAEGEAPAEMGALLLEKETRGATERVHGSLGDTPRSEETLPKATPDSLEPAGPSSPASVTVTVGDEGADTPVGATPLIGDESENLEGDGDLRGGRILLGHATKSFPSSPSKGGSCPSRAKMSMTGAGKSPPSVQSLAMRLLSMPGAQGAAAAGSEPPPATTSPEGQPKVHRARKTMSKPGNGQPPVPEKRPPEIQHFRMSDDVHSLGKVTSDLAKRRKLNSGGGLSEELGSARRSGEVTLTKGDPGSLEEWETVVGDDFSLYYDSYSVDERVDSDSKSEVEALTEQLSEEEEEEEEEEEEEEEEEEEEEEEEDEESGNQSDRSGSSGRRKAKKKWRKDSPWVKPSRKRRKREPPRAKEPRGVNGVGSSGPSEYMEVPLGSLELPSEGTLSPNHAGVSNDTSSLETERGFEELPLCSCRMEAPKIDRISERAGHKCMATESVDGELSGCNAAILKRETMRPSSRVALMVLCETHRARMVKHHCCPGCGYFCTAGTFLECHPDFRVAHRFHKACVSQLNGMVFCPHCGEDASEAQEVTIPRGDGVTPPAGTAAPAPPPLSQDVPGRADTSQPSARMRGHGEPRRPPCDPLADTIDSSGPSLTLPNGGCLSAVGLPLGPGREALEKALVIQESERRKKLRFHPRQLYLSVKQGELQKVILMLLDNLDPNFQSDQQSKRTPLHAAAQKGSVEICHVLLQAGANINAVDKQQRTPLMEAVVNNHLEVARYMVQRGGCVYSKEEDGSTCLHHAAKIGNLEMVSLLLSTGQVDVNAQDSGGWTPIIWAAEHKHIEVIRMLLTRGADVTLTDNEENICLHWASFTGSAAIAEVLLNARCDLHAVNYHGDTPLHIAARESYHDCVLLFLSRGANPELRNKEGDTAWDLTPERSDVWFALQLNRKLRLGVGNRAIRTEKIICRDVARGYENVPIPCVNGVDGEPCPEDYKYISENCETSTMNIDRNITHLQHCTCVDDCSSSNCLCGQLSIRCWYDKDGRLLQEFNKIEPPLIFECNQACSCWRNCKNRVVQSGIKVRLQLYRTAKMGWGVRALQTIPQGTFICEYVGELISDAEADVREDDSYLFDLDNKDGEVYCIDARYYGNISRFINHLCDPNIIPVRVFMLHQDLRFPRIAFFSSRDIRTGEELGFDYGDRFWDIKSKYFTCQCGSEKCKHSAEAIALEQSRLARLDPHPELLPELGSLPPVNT
Summary of the method: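 G9a (20 nM) was preincubated 15 min with compound, then reacted 2 h at room temperature with 500 nM biotin-H3K9 peptide and 20 µM SAM. Monomethyl-H3K9 detected by AlphaScreen using anti-H3K9me1 antibody.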
On the % scale 0 is the no-effect control and ±100 the full control effect; potency means the concentration at half of the fitted maximal effect; tags describe the fitted curve by direction and shape.

| Compound | Potency | activity, negative = inhibition |
| --- | --- | --- |
| Cc1ccccc1C(=O)NNC(=O)C1CCN(c2ncccn2)CC1 | inconclusive: 35.5 µM [inhibitor, partial curve, poor fit] |  |
| C[C@H](NC(=O)[C@@H]1Cc2ccccc2CN1)C(=O)Nc1ccc2c(c1)OCCO2 |  | inactive: 16.5% [at 0.0925 µM] |
| Cc1ccc(N2CC(C(=O)OCC(=O)c3ccc(C)c([N+](=O)[O-])c3)CC2=O)cc1 (stereo not drawn) | inconclusive: 89.1 µM [inhibitor, single point] |  |
| O=C(COC(=O)c1cncc(Br)c1)NCc1ccccc1Cl | inconclusive: 44.7 µM [inhibitor, partial curve, poor fit] |  |
| NC1=NC(=O)/C(=C\c2cccnc2)S1 | inconclusive: 50.1 µM [inhibitor, partial curve, poor fit] |  |
| Cc1cc(C)cc(NC(=O)c2cc(C)nc3c2c(C)nn3-c2ccccc2)c1 |  | inactive: -7.82% |
| COC(=O)c1ccc(NC(=O)Cn2nc(C)c3ccccc3c2=O)cc1 |  | inactive: 27.2% |
| O=C(Nc1nc2ccccc2c(=O)s1)c1ccco1 | active: 70.8 µM |  |
| O=C(/C=C/Nc1ccc(Br)cc1F)c1ccco1 | inconclusive: 70.8 µM [inhibitor, partial curve, poor fit] |  |
| CCN(C(=O)c1cc2c(=O)oc3ccccc3c2s1)c1ccc(C)c(C)c1 |  | inactive: 6.59% |
| O=C(c1ccoc1)N1CCC2(CC1)Oc1ccc(F)cc1C(=O)C21CC(c2ccc(Cl)cc2)=NO1 (stereo not drawn) | inconclusive: 14.1 µM [inhibitor, single point] |  |
| COc1ccc(NC(=O)c2ccc3c(=O)n4nc(Nc5ccccc5C)sc4nc3c2)cc1Cl | inconclusive: 3.55 µM [inhibitor, single point] |  |
| Cc1[nH]c2c(C)cccc2c1CCNC(=O)c1ccc2c(c1[N+](=O)[O-])C(=O)c1ccccc1C2=O |  | inactive: 14.2% |
| Cc1noc2c1C(c1ccc(N(C)C)cc1)C1=C(CC(C)(C)CC1=O)N2 (stereo not drawn) | inconclusive: 2.82 µM [inhibitor, single point] |  |
| CCN(CC)S(=O)(=O)c1ccc(C(=O)NCCN2C(=O)S/C(=C\c3cccnc3)C2=O)cc1 | inconclusive: 89.1 µM [inhibitor, single point] |  |
| CC(=O)C1=C(O)C(=O)N(c2ccc(C)cc2)C1c1ccccn1 (stereo not drawn) | inconclusive: 31.6 µM [inhibitor, single point] |  |
| CCN1CCN(c2cc(C)c3cc(NC(=S)N(C)Cc4ccccc4)ccc3n2)CC1 | inconclusive: 79.4 µM [inhibitor, single point] |  |
| Cc1ccccc1C(=O)Nc1ccccc1OCc1cc(=O)n2ccccc2n1 |  | inactive: 0.709% |
| CC(=O)c1cccc(NC(=O)C(C)OC(=O)c2ccc(-n3cnnn3)cc2)c1 (stereo not drawn) | inconclusive: 89.1 µM [inhibitor, partial curve, poor fit] |  |
| CCn1cc(C(=O)NCCCN2CCN(C)CC2)c(=O)c2cc(S(=O)(=O)N3CCc4ccccc4C3)ccc21 | inconclusive: 79.4 µM [inhibitor, partial curve, poor fit] |  |
| CCN(c1ccc(NC(=O)COC(=O)c2cccs2)cc1)C(C)C | active: 11.2 µM |  |
| CCOc1ccccc1NC(=O)Cn1c(=O)n(Cc2nc(C)no2)c(=O)c2ccccc21 | inconclusive: 5.01 µM [inhibitor, partial curve, poor fit] |  |
| Cc1ccc(C(=O)NCC(c2ccc3c(c2)OCO3)N2CCN(c3ccc(F)cc3)CC2)cc1 (stereo not drawn) | inconclusive: 8.91 µM [inhibitor, partial curve, poor fit] |  |

| Compound | Potency | activity, negative = inhibition |
| --- | --- | --- |
| O=C(c1ccco1)N1CCN(CCCCOc2ccc(F)cc2)CC1 | inconclusive: 89.1 µM [inhibitor, single point] |  |
| O=C(/C=C/c1cccs1)c1ccc(NC(=O)c2cccc(Br)c2)cc1 |  | inactive: -27.3% |
| CC1CCN(C(=O)c2ccccc2SCC(=O)NCC2CCCCC2)CC1 | inconclusive: 79.4 µM [inhibitor, partial curve, poor fit] |  |
| CN1CCN(CCCNC(=O)c2ccc(Cn3c(=S)[nH]c4ccc(Br)cc4c3=O)cc2)CC1 | active: 31.6 µM |  |
| CC(=O)NS(=O)(=O)c1ccc(N=c2ssc3c2-c2cc(C)ccc2NC3(C)C)cc1 | inconclusive: 39.8 µM [inhibitor, single point] |  |
| CCCOc1cc(N(CC)CC)ccc1/C=C(/C#N)c1nc2ccc(C)cc2[nH]1 | active: 20 µM |  |
| CCOC(=O)C1=C(O)C(=O)N(CCCn2ccnc2)C1c1ccc(OC)cc1 (stereo not drawn) | active: 44.7 µM |  |
| CCN1CCN(C2=C(NS(=O)(=O)c3ccc(Br)cc3)C(=O)c3ccccc3C2=O)CC1 | active: 44.7 µM |  |
| O=C(c1cnc2n(c1=O)CCS2)N1CCN(c2ccc([N+](=O)[O-])cc2)CC1 | inconclusive: 0.794 µM [inhibitor, partial curve, poor fit] |  |
| Cc1cccc(-c2nc(S(=O)(=O)c3ccc(Cl)cc3)c(N3CCCCCC3)o2)c1 | inconclusive: 12.6 µM [inhibitor, partial curve] |  |
| Cc1cc(N2CCOCC2)nc2ccc(NC(=S)N3CCN(Cc4ccccc4)CC3)cc12 | active: 50.1 µM |  |
| COc1ccccc1N1CCN(C(=O)c2sc3nc(-c4ccccc4)cn3c2C)CC1 |  | inconclusive: -83.6% [inhibitor] |
| COc1ccc(CN2CCN(Cc3ccc(C(F)(F)F)cc3)CC2)cc1 | active: 7.08 µM |  |
| COc1ccc(OCCCC(=O)Nc2cccc(S(=O)(=O)N3CCCCCC3)c2)cc1 |  | inactive: -48.2% [at 12.7 µM] |
| O=C(NCCc1nc2ccccc2[nH]1)/C(=C/c1ccco1)NC(=O)c1ccco1 | inconclusive: 89.1 µM [inhibitor, single point] |  |
| CN(CC(=O)N(C)CC(=O)Nc1c(Cl)cccc1Cl)Cc1ccc(Br)s1 | inconclusive: 31.6 µM [inhibitor, single point] |  |
| Cc1oc(-c2ccc(Cl)cc2)nc1CS(=O)CC(=O)NCc1cccs1 (stereo not drawn) | inconclusive: 89.1 µM [inhibitor, single point] |  |
| Cc1cnc(C(=O)Oc2cccc(Cl)c2Cl)cn1 | inconclusive: 100 µM [inhibitor, single point] |  |
| CCCc1[nH]nc2c1C(c1ccccc1OC)C(C#N)=C(N)O2 (stereo not drawn) | inconclusive: 89.1 µM [inhibitor, single point] |  |
| Cc1cccc(NC(=O)C2CCCN(S(=O)(=O)c3ccc4c(c3)oc(=O)n4C)C2)c1C (stereo not drawn) |  | inactive: 2.05% |
| COc1cccc(/C=N/Nc2snc(SC)c2C#N)c1 | inconclusive: 3.16 µM [inhibitor, single point] |  |
| Cc1onc(-c2ccccc2)c1C(=O)Nc1ncc([N+](=O)[O-])s1 | active: 44.7 µM |  |
| COc1ccc(NC(=O)CN2C(=O)NC(C)(c3ccccc3)C2=O)cc1Cl (stereo not drawn) |  | inactive: 14% [at 102 µM] |

| Compound | Potency | activity, negative = inhibition |
| --- | --- | --- |
| CN1CCN(C(=O)c2cc3nc(-c4ccccc4)cc(C(F)(F)F)n3n2)CC1 |  | inactive: 3.09% |
| COc1ccc(N(Cc2cc(=O)[nH]c3ccccc23)C(=O)c2ccco2)cc1 | active: 50.1 µM |  |
| COc1cc(NC(=O)c2ccco2)ccc1NC(=O)c1ccccc1Cl |  | inconclusive: -58.1% [inhibitor] [at 12.7 µM] |
| Nc1nnc(CC(=O)N/N=C/c2ccc(-c3cccc(C(=O)O)c3)o2)s1 | inconclusive: 89.1 µM [inhibitor, single point] |  |
| CCCCCCCCCCCCCC(=O)OC(C)C |  | inactive: -1.63% |
| CCc1ccccc1NC(=O)CN1C(=O)C2CCCN2c2ccc(S(=O)(=O)N(CC)CC)cc21 (stereo not drawn) | inconclusive: 11.2 µM [inhibitor, partial curve, poor fit] |  |
| Cc1ccc(SCC(=O)Nc2ccccc2C(=O)O)cc1 | inconclusive: 39.8 µM [inhibitor, single point] |  |
| c1ccc(-c2nnc(-c3ccco3)n2-c2ccccc2)cc1 |  | inactive: -39% |
| COc1cccc(N2C(=O)C(CC(=O)Nc3ccccc3)N(CCc3sccc3C)C2=O)c1 (stereo not drawn) |  | inactive: 0.687% |
| COc1ccc(N(C(C)C(=O)N/N=C/c2ccc(OC)c(OC)c2)S(C)(=O)=O)cc1 (stereo not drawn) |  | inactive: -36.3% [at 102 µM] |
| O=C(c1cccs1)N1CCC(c2nc3c(nnn3Cc3c(Cl)cccc3Cl)c(=O)[nH]2)CC1 |  | inactive: 9.12% [at 102 µM] |
| CCOc1cc(/C=N/NC(=O)c2ccncc2)cc(Cl)c1OS(C)(=O)=O | inconclusive: 0.224 µM [inhibitor, full curve, poor fit] |  |
| CCn1c(CNC(=O)c2ccco2)nnc1SCC(=O)Nc1cccc(F)c1 |  | inactive: 11.1% [at 102 µM] |
| CCOc1cc(C(=S)N2CCOCC2)ccc1OC | active: 10 µM |  |
| Cn1c(=O)c2c(nc(N3CCCCCC3)n2CC(O)COc2ccc(Cl)cc2)n(C)c1=O (stereo not drawn) | inconclusive: 50.1 µM [inhibitor, partial curve] |  |
| Cc1cc(NS(=O)(=O)c2ccc(NC(=O)/C=C/c3ccc(C)o3)cc2)nc(C)n1 | active: 8.91 µM |  |
| O=C(C1=C(O)C(=O)N(CCN2CCOCC2)C1c1cccc(O)c1)c1cc2ccccc2o1 (stereo not drawn) | active: 50.1 µM |  |
| O=C(CSc1nc(-c2ccccc2)nc2ccc(F)cc12)Nc1ccc(C(=O)O)cc1 | active: 44.7 µM |  |
| CC(=O)N/C(=C\c1ccccc1)C(=O)OCC(=O)Nc1cc(S(=O)(=O)N(C)C)ccc1C | inconclusive: 89.1 µM [inhibitor, partial curve, poor fit] |  |
| O=C(Nc1cccnc1)c1cccc(S(=O)(=O)Nc2ccccc2F)c1 | inconclusive: 31.6 µM [inhibitor, partial curve, poor fit] |  |
| CCc1cccc2c(C(=O)COC(=O)c3ccc([N+](=O)[O-])s3)c[nH]c12 | inconclusive: 39.8 µM [inhibitor, single point] |  |
| COc1ccc(N2CCN(C(=O)CN3CCN(C(c4ccccc4)c4ccccc4)CC3)CC2)cc1 | inconclusive: 39.8 µM [inhibitor, single point] |  |
